Among all 50,000 compounds or so, about 800 (1.6%) showed an effect of 50% or more. This is one part of the list.
molecular target: Bcl-2-like protein 10 (Homo sapiens) (UniProt Q9HD36); assay: TR3 peptide-Bcl-B binding displacers, biochemical primary FP assay, phenotype converters (AID 1240); details: GST-Bcl-B / FITC-TR3 peptide fluorescence polarization; stronger effect = higher value; compound at 3.75 mg/L;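 also: 0% = Bcl-B with tracer peptide and DMSO and 100% = tracer peptide lacking Bcl-B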
Sequence of UniProt Q9HD36 (Q9HD36 whole entry, looked up): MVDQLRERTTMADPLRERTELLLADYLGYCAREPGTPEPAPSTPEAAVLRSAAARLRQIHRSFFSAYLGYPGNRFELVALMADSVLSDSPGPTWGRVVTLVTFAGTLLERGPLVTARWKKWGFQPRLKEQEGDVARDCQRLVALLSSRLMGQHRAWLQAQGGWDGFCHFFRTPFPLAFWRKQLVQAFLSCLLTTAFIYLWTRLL

Structure (SMILES)	displacement [%]
Cc1ccc(NC(=O)c2ccc([N+](=O)[O-])cc2Cl)c(Br)c1	-3
CN(C)C(=O)NCCSCc1ccccc1Cl	2.2
COc1ccc(Nc2cc(C)nc(-c3ccccc3O)n2)cc1	-10.7
Cc1ccnc(NS(=O)(=O)c2ccc(NC(=O)c3cccc(I)c3)cc2)n1	34.2
COc1ccc(C(=O)NNC(=O)c2cccc(Cl)c2)c(OC)c1	-2
CCCC(=O)Nc1ccc(NC(=O)c2ccco2)cc1	-3.2
NNc1nc(-c2ccccc2)cs1	6.4
CC(=O)c1ccc(NC(=O)/C(=C\c2ccco2)NC(=O)c2ccco2)cc1	-32.9
N/C(Cc1ccc([N+](=O)[O-])cc1)=N\OC(=O)Cc1ccc(Cl)cc1	-8.1
Cc1ccc(C(=O)Nc2cccc(NC(=O)c3ccc(C)cc3)n2)cc1	3.9
Cc1cc2nc(-c3ccc(NC(=O)c4cccc([N+](=O)[O-])c4C)cc3)oc2cc1C	-2.6
C(=NC1=NN(c2ccccc2)CC1)N1CCCCC1	2.8
CCc1ccc(-n2c(C)cc(/C=C(/C#N)C(=O)N3CCOCC3)c2C)cc1	-0.4
COc1ccc(C2C(C(C)=O)=C(Nc3ccccc3)CC(C)(O)C2C(C)=O)cc1 (stereo unspecified)	1.4
O=[N+]([O-])c1ccc(C=NC23CN4CN(CN(C4)C2)C3)s1	-8
Cc1ccc(C(=O)Nc2ccccc2)cc1[N+](=O)[O-]	4.6
O=C1NC(=S)N/C1=C/c1ccc(O)c(Br)c1	23.3
CC(C)c1ccc(N=C2C(=O)Nc3ccc(Br)cc32)cc1	5.1
Cc1cccc(NC(=O)c2ccc(-c3ccc(C)c(Cl)c3)o2)c1	69.8
Cc1ccsc1/C=C1\SC(=O)NC1=O	6.2
C#Cc1cccc(N2C(=O)c3ccc(Oc4ccc([N+](=O)[O-])cc4)cc3C2=O)c1	2.7
COc1ccc(OC)c(C2/C(=C(\O)c3ccc(Cl)cc3)C(=O)C(=O)N2CCCCCC(=O)O)c1 (stereo unspecified)	2.1
CCOC(=O)c1cncc(NC(=O)c2ccccc2)c1	-16.4

Structure (SMILES)	displacement [%]
CCOc1cc(C=O)ccc1OC(C)C	-9.1
CC(C)OC(=O)c1cc(O)c(O)c(O)c1	-1.3
CC(C)OC(=O)c1c(NC(=O)c2cccc(OC(C)C)c2)sc2c1CCC2	-9.7
O=C(O/N=C(\c1ccncc1)c1ccc([N+](=O)[O-])cc1)c1ccc(Oc2ccccc2)cc1	3.3
COc1ccc(/C(C)=N/NC(=O)c2cc(C)[nH]n2)cc1[N+](=O)[O-]	-12.3
CCCCOC(=O)c1ccc2c(c1)C1C=CCC1C(c1ccc([N+](=O)[O-])cc1)N2 (stereo unspecified)	6.6
O=C(N/N=C/c1ccc2c(c1)OCO2)c1ccccn1	13.2
COc1ccc(C2C(C(=O)OC3CCCCC3)=C(C)NC3=C2C(=O)CCC3)c(OC)c1 (stereo unspecified)	-10.6
N#CC(C(=O)Nc1ccccn1)=C1CCCCCC1	-3
O=C1C2C(C(=O)N1c1nccs1)C1C=CC2C12CC2 (stereo unspecified)	-0.7
CCN(CC)CCCNS(=O)(=O)c1ccc(OC)cc1	-5.5
COc1ccc(C)cc1NCc1ccncc1	1.9
O=C1CC(N2CCC(Cc3ccccc3)CC2)C(=O)N1CCc1ccccc1 (stereo unspecified)	12.6
Nc1nc(Oc2ccccc2)c(Br)c(=O)[nH]1	3.4
CC(=O)OCCCNC(=O)/C(=C\c1ccc2c(c1)OCO2)NC(=O)c1ccco1	-5.3
Cc1ccc(-c2nc3cc(NC(=O)C(C)C)ccc3o2)cc1	8.2
Cc1ccc(/C(N)=N/OC(=O)c2cccc(F)c2)cc1	14.9
O=S(=O)(/C=C/c1ccccc1)N1CCN(c2ccccc2)CC1	-4.5
Cc1ccc(N2C(=O)CC(NC3CCCCCC3)C2=O)cc1 (stereo unspecified)	20
COc1ccc(-c2ccc(/C=C3/C(=O)NC(=O)N(c4ccccc4)C3=O)o2)c([N+](=O)[O-])c1	78.3
CCOC(=O)c1ccc(NC(=O)COc2ccc(Br)cc2)cc1	4.4
C/C(=C\C(=O)c1ccc(Br)cc1)Nc1ccccc1C	0.8
CN1C(=O)/C(=C\c2ccccc2OCCOc2ccc([N+](=O)[O-])cc2)SC1=S	133

Structure (SMILES)	displacement [%]
COc1ccc(NC(=O)CN(CCc2ccccc2)S(=O)(=O)c2ccc(OC)cc2)cc1	8.7
CCc1cc(C)cc(OCCOc2ccc(C=C3C(=O)NC(=O)NC3=O)cc2)c1	-11.3
Cc1[nH]n(-c2ccccc2)c(=O)c1N=Nc1nccs1	-10.2
CCOC(=O)CNC(=O)CCCOc1ccc(Cl)cc1Cl	-3.2
CC(C)N(Cc1ccccc1)C(=O)CCCOc1ccc(Cl)cc1Cl	15.9
Cc1ccccc1OCC(=O)Nc1ccc2c3c(cccc13)CC2	107
CS(=O)(=O)N(Cc1ccccc1)c1ccccc1C(=O)Nc1ccc(Cl)c(C(F)(F)F)c1	6.3
O=C(Nc1c(F)c(F)c(F)c(F)c1F)C1CCCO1 (stereo unspecified)	2.5
Cc1cc(NC(=O)Cc2cccs2)ccc1NC(=O)c1cccs1	0.5
COc1cc(/C=C2/C(=O)NN(c3ccccc3)C2=O)ccc1OC(C)=O	-3.6
Cc1onc(-c2ccccc2Cl)c1C(=O)Nc1ccc2ccccc2c1	3.1
Cc1ccc(N(CC(=O)N/N=C/c2ccccc2O)S(=O)(=O)c2ccccc2)cc1	-3.1
COC(=O)c1ccc(COc2ccc3c(oc(=O)c4ccccc43)c2C)cc1	8.2
CN(C)c1nccc(NCc2ccccc2)c1C#N	-4.9
Nc1nnc(SCC(=O)Nc2ccc3nc(SCC(=O)Nc4ccccc4)sc3c2)s1	-17.5
C=CCN1C(=O)/C(=C\c2cccc(Cl)c2)C(=O)NC1=S	3.9
CCOC(=O)C(CCCOc1ccccc1F)C(=O)OCC	-3.3
O=C(NCc1ccccc1Cl)C(=O)Nc1cccc(Cl)c1Cl	0.9
CCOC(=O)c1c(NC(=O)CSc2nc3ccccc3[nH]2)sc2c1CCCC2	-17.3
Cc1ccc(N(CC(=O)Nc2ccc(Cl)cc2C)S(=O)(=O)c2ccc(F)cc2)cc1	-13.9
COc1ccccc1C(=O)N[C@H](C)c1ccccc1	-0.6
O=C(CC1S\C(=N/N=C/C=C/c2ccccc2)NC1=O)Nc1ccc(C(=O)O)cc1 (stereo unspecified)	41.6
COc1cccc(CN2CCN(C(=O)c3ccccc3)CC2)c1OC	-2.8

Structure (SMILES)	displacement [%]
O=C(c1cnn2c(-c3ccccc3)cc(-c3ccccc3)nc12)N1CCOCC1	16.8
CCOc1ccc(NC(=O)c2cccc(F)c2)cc1	-11.1
O=C1NN(c2ccccc2)C(=O)/C1=C/c1cccc2ccccc12	5.1
Cc1cccn2c(=O)c(/C=C3\SC(=S)N(CCc4ccccc4)C3=O)c(NCCCn3ccnc3)nc12	10.4
O=C1NN(c2ccccc2)C(=O)/C1=C/c1ccc(OCc2ccccc2F)cc1	13.6
CC(C)(C)C1CCc2c(sc(NC(=O)C3CCCO3)c2C(N)=O)C1 (stereo unspecified)	-7.5
C=CCn1c(CC)nc2ccccc21	7.9
COc1ccc(OC)c(COc2ccc(-c3nc4sc5c(c4c(=O)[nH]3)CCCC5)cc2)c1	13.6
Cc1cc(=O)[nH]c(N/N=C/c2ccccc2Cl)n1	-2.8
O=[N+]([O-])c1ccccc1CNC1CCCCCC1	2.1
COc1ccc(C(=O)NC(=S)Nc2ccccc2Cl)cc1	4.8
Cc1cc(Br)cc(C)c1NC(=O)c1cc2ccccc2o1	10.9
CCCOC(=O)c1ccc(NC(=O)c2cccc([N+](=O)[O-])c2)cc1	15.5
O=C(Nc1ccc(Cl)cc1)O/N=C\c1c[nH]c2ccccc12	-0.5
O=[N+]([O-])c1ccc(NCCNS(=O)(=O)c2ccc(Cl)cc2)c(Cl)c1	2.3
CCOc1ccc(C(=O)NC(C)C2COc3ccccc3O2)cc1 (stereo unspecified)	1.9
CC(C)c1ccc(N2C(=O)CSC23C(=O)Nc2ccccc23)cc1 (stereo unspecified)	2
COc1ccccc1C(=O)Nc1cc(C)cc(C)c1	11.4
O=C(Nc1cc(C(F)(F)F)ccc1Cl)c1cccs1	7.2
Cc1ccc(S(=O)(=O)N2CCN(c3ccc([N+](=O)[O-])c(NC4CC4)c3)CC2)cc1	14.1
CCOC(=O)C(=CNc1cc(C)ccc1O)C(=O)OCC	-1.7
C=CCc1ccc(OCC(O)CN2CC(C)OC(C)C2)c(OC)c1 (stereo unspecified)	-10
CCOc1c(Br)cc(/C=C2\C(=O)NC(=O)N(c3cccc(C)c3)C2=O)cc1OC	12.1

Structure (SMILES)	displacement [%]
Brc1ccc(-c2nnc(SCCC3OCCCO3)o2)cc1	13.5
N#Cc1cccc(NC(=O)Nc2ccc(Cl)cc2)c1	-5.3
Cc1cc([N+](=O)[O-])cc2c1NC(=O)C2=O	-5.2
CC(=O)c1ccc(NCCC(=O)c2cccs2)cc1	-17.9
COc1cc(CN2CCN(C3CCCCC3)CC2)cc(OC)c1O	-9.5
O=C(c1ccc2ccccc2n1)N1CCOCC1	10.4
Cc1cc2ncn(S(=O)(=O)c3ccc(Cl)c([N+](=O)[O-])c3)c2cc1C	-5.3
CCN1C(=O)C(=O)c2cc(Br)ccc21	0.4
C=CCOC(=O)C1=C(C)NC(C)=C(C(=O)OCC=C)C1c1ccc(O)c(OCC)c1	10.8
Cc1ccc(N2C(=O)CC(NCc3cccc4ccccc34)C2=O)cc1 (stereo unspecified)	2.8
CN(C)c1ccc(/C=C2\N=C(c3ccc([N+](=O)[O-])cc3)OC2=O)cc1	-8.6
Cc1ccc(-n2nc3cc(C)c(NC(=O)c4cccc(Cl)c4)cc3n2)cc1	-4.2
O=C(NNc1nc(-c2ccccc2)c2cc(Br)ccc2n1)c1ccccc1Cl	-19.2
C=CCc1cc(/C=C2\C(=O)NC(=O)N(c3ccc(Cl)cc3)C2=O)cc(OC)c1OCC(=O)OC	-14.3
CC(=O)c1cccc(NC(=O)C(C)Sc2ccc(Cl)cc2)c1 (stereo unspecified)	3.2
CCOC(=O)c1c(-c2ccccc2)csc1NC(=O)C(C)C	5.5
COC(=O)c1c(C)oc2cc(Br)c(OC(=O)c3ccc([N+](=O)[O-])cc3)cc12	9.3
CN1CCC(=NNC(=O)CN(c2cccc(Cl)c2)S(=O)(=O)c2ccccc2)CC1	0.4
O=C(N/N=C\c1cc(Cc2ccccc2Cl)ccc1O)c1cncc(Br)c1	-9.4
